{"source": "the supplement of paper PMC9446081", "note": "Out of some 39,000 compounds screened, about 220 (0.56%) showed activity. This is one part of the list.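 Note: static incubation at 37 °C against the wild-type strain, values averaged over two biological replicates.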", "data": [{"system": "Escherichia coli K-12 BW25113", "assay": "relative growth (OD600 normalised to plate interquartile mean) (fraction); higher = less growth inhibition, active = 0.2 or less", "conditions": "50 µM; LB; incubation time: overnight (16-24 h)", "values": [{"smiles": "CC1(C)CNCC(=O)NC1", "relative growth": "inactive: 0.966"}, {"smiles": "Cc1ccc(-c2ccc3c(c2)O[C@H](CN(C)Cc2cncnc2)[C@H](C)CN([C@H](C)CO)S3(=O)=O)cc1", "relative growth": "inactive: 1.02"}, {"smiles": "COc1ccc(CN(C)C[C@H]2OCCCC[C@H](C)Oc3ccc(NC(=O)Nc4c(C)noc4C)cc3C(=O)N([C@H](C)CO)C[C@@H]2C)cc1", "relative growth": "inactive: 1.01"}, {"smiles": "OCC(O)C(O)C(O)C(O)CO", "note": "(stereo not given)", "relative growth": "inactive: 1.07"}, {"smiles": "Cc1ccc(S(=O)(=O)N(C)C[C@@H]2Oc3ncc(C#Cc4ccccc4)cc3C(=O)N([C@H](C)CO)C[C@@H]2C)cc1", "relative growth": "inactive: 1.04"}, {"smiles": "COc1ccc(S(=O)(=O)Nc2ccc3c(c2)C(=O)N([C@H](C)CO)C[C@H](C)[C@@H](CN(C)S(=O)(=O)c2cccs2)O3)cc1", "relative growth": "inactive: 0.994"}, {"smiles": "CCCCN1CC=C[C@@]23O[C@@H]4C=CCOC(=O)[C@@H]4[C@H]2C(=O)N([C@@H](C)CO)[C@@H]3C1=O", "relative growth": "inactive: 1.04"}, {"smiles": "C[C@H]1CN([C@@H](C)CO)C(=O)Cc2cc(NC(=O)Cc3cn(C)c4ccccc34)ccc2O[C@H]1CN(C)S(C)(=O)=O", "relative growth": "inactive: 0.983"}, {"smiles": "Cc1ccn2c(=O)c(C(=O)O)cnc2c1", "relative growth": "inactive: 0.966"}, {"smiles": "C[C@H]1CCCCO[C@@H](CN(C)S(C)(=O)=O)[C@@H](C)CN([C@@H](C)CO)C(=O)c2cc(N(C)C)ccc2O1", "relative growth": "inactive: 1.01"}, {"smiles": "C[C@@H]1CCCCO[C@H](CN(C)C(=O)Nc2ccc3c(c2)OCO3)[C@H](C)CN([C@@H](C)CO)C(=O)c2cc(NC(=O)Nc3ccc4c(c3)OCO4)ccc2O1", "relative growth": "inactive: 1.02"}, {"smiles": "Cc1ccc(S[C@]2(C(=O)NCc3ccccc3)CC(=O)N(Cc3ccccc3C(F)(F)F)[C@@H]2c2ccc(CO)cc2I)cc1", "relative growth": "inactive: 0.989"}, {"smiles": "Cc1noc(C)c1S(=O)(=O)N(C)C[C@H]1Oc2ccc(NC(=O)Cn3cnnn3)cc2CC(=O)N([C@H](C)CO)C[C@H]1C", "relative growth": "inactive: 0.997"}, {"smiles": "CC(C)=CCCC(C)(O)C1CC=C(C)CC1", "note": "(stereo not given)", "relative growth": "inactive: 1.02"}, {"smiles": "C[C@H]1CN([C@@H](C)CO)C(=O)c2cccc(NC(=O)Nc3ccc(F)cc3)c2O[C@@H]1CN(C)Cc1ccc(C(F)(F)F)cc1", "relative growth": "inactive: 0.841"}, {"smiles": "COc1ccc(S(=O)(=O)N(C)C[C@@H]2Oc3ccc(NC(=O)C4CC4)cc3CC(=O)N([C@H](C)CO)C[C@H]2C)cc1", "relative growth": "inactive: 1.01"}, {"smiles": "Cc1noc(C)c1NC(=O)Nc1ccc2c(c1)C(=O)N([C@@H](C)CO)C[C@H](C)[C@H](CN(C)S(=O)(=O)c1ccccc1)O2", "relative growth": "inactive: 0.983"}, {"smiles": "C[C@@H]1CN([C@H](C)CO)C(=O)Cc2cc(NC(=O)CCN3CCOCC3)ccc2O[C@@H]1CN(C)CC1CC1", "relative growth": "inactive: 0.964"}, {"smiles": "C[C@H](CO)N1C[C@H](C)[C@H](CN(C)C(=O)CN2CCOCC2)Oc2ncc(C#C[C@@H](C)O)cc2C1=O", "relative growth": "inactive: 0.993"}, {"smiles": "O=C(O)[C@H](Cc1ccc(Nc2nccc3ccncc23)cc1)NC1=C(Br)C(=O)C12CCCCC2", "relative growth": "inactive: 1.05"}, {"smiles": "CC1CC2C(C(O)CC3(C)C2CCC3(O)C(=O)CO)C2(C)C=CC(=O)C=C12", "note": "(stereo not given)", "relative growth": "inactive: 1.18"}, {"smiles": "COCC(=O)Nc1ccc2c(c1)C(=O)N(C)C[C@@H](OC)[C@H](C)CN(Cc1ccccc1C(=O)O)[C@H](C)CO2", "relative growth": "inactive: 1.02"}, {"smiles": "Cc1noc(C)c1S(=O)(=O)Nc1ccc2c(c1)C(=O)N([C@@H](C)CO)C[C@H](C)[C@H](CN(C)C)OCCCC[C@H](C)O2", "relative growth": "inactive: 1.03"}, {"smiles": "C[C@H](CO)N1C[C@H](C)[C@H](CN(C)S(=O)(=O)c2cn(C)cn2)Oc2c(NC(=O)Nc3ccccc3)cccc2C1=O", "relative growth": "inactive: 0.983"}, {"smiles": "C[C@@H]1CN([C@@H](C)CO)C(=O)c2cc(NS(=O)(=O)c3cn(C)cn3)ccc2O[C@@H](C)CCCCO[C@H]1CN(C)C(=O)Nc1cccc2ccccc12", "relative growth": "inactive: 0.971"}, {"smiles": "CC(C)c1ccc(/C=C2\\CSc3ccccc3C2=O)cc1", "relative growth": "inactive: 1.01"}, {"smiles": "COCC(=O)N1C[C@H](C)[C@H](OC)CN(C)C(=O)c2cc(NC(=O)Nc3cccc(F)c3)ccc2OC[C@@H]1C", "relative growth": "inactive: 0.971"}, {"smiles": "C[C@@H](O)COC[C@H]1O[C@@H]2O[C@H]3[C@H](O)[C@@H](O)[C@@H](O[C@H]4[C@H](O)[C@@H](O)[C@@H](O[C@H]5[C@H](O)[C@@H](O)[C@@H](O[C@H]6[C@H](O)[C@@H](O)[C@@H](O[C@H]7[C@H](O)[C@@H](O)[C@@H](O[C@H]8[C@H](O)[C@@H](O)[C@@H](O[C@H]1[C@H](O)[C@H]2O)O[C@@H]8COC[C@@H](C)O)O[C@@H]7COC[C@@H](C)O)O[C@@H]6COC[C@@H](C)O)O[C@@H]5COC[C@@H](C)O)O[C@@H]4COC[C@@H](C)O)O[C@@H]3COC[C@@H](C)O", "relative growth": "inactive: 1.04"}, {"smiles": "C[C@@H]1CCCCO[C@@H](CN(C)CC2CC2)[C@H](C)CN([C@H](C)CO)C(=O)c2cc(NC(=O)Cc3ccccc3)ccc2O1", "relative growth": "inactive: 0.996"}, {"smiles": "CSc1ncccc1C(N)=O", "relative growth": "inactive: 1.01"}, {"smiles": "Nc1ccc([C@@H](O)[C@@H](O)CO)cc1", "relative growth": "inactive: 0.984"}, {"smiles": "O=C(O)C12CC(C1)C2", "relative growth": "inactive: 1"}, {"smiles": "CC1=CC2C(C(C)C)CCC(C)(O)C2CC1", "note": "(stereo not given)", "relative growth": "inactive: 0.758"}, {"smiles": "NC(=S)c1cnccn1", "relative growth": "inactive: 0.99"}, {"smiles": "COc1ccc(S(=O)(=O)Nc2ccc3c(c2)C(=O)N([C@@H](C)CO)C[C@@H](C)[C@@H](CN(C)C(=O)Nc2ccc4c(c2)OCO4)OCCCC[C@@H](C)O3)cc1", "relative growth": "inactive: 0.997"}, {"smiles": "Br.Cc1ccc(Sc2ccccc2N2CCNCC2)c(C)c1", "relative growth": "inactive: 0.963"}, {"smiles": "COCC(=O)Nc1ccc2c(c1)OC[C@@H](C)N(C(=O)Cc1cccnc1)C[C@@H](C)[C@@H](OC)CN(C)C2=O", "relative growth": "inactive: 0.969"}, {"smiles": "Cc1noc(C)c1NC(=O)N(C)C[C@H]1OCCCC[C@H](C)Oc2ccc(NC(=O)c3ccccc3)cc2C(=O)N([C@@H](C)CO)C[C@H]1C", "relative growth": "inactive: 0.98"}, {"smiles": "Cc1ccc(S(=O)(=O)Nc2ccc3c(c2)CC(=O)N([C@H](C)CO)C[C@H](C)[C@H](CN(C)S(=O)(=O)c2cccs2)O3)cc1", "relative growth": "inactive: 1.01"}, {"smiles": "C[C@@H]1CCCCO[C@@H](CN(C)Cc2ccncc2)[C@H](C)CN([C@H](C)CO)C(=O)c2cc(NC(=O)Nc3ccccc3)ccc2O1", "relative growth": "inactive: 1.01"}]}]}
